Out of some 410,000 compounds screened, about 530 (0.13%) were called active. Inconclusive means that the source gave no clear call. Such entries were picked first, then a sample of the others. Calls follow the shape of the dose curve; as a rule, active = well fitted inhibition curve with a large enough effect; inconclusive = small, poorly fitted or top-dose-only effect, or another doubt; inactive = no such curve, though single readings can be large or run the other way. A potency beside an inconclusive call is a rough fit, not a confirmed value.
Experiment: qHTS of GLP-1 Receptor Inverse Agonists: Cytotox Screen
Conditions: HEK293 cAMP-luciferase reporter cells, luminescence, 24 h; series mostly up to 38.3 µM
Method in brief: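 Step one: seed cells (200 cells/uL, DMEM with 10% Nu serum, 1% pen-strep). Step two: 12-hour incubation at 37 deg C. Step three: pin 23 nL compound, incubate 24 hr. Step four: add luciferase reagent, read luminescence 12 min later.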
Potency is read from the fitted curve at half-maximal effect.

SMILES	Potency
Nc1cccc(-c2nc3ccccc3[nH]2)c1	inactive
CCCCCCCNC(=O)C1(CC2CC(c3ccc(Cl)cc3)=NO2)CCN(C(=O)C2CCCC2)CC1 (stereo not drawn)	inconclusive: 3.55 µM [inhibitor, full curve, poor fit]
CC(C)(C)c1ccc(C(=O)NCCc2csc3nc(-c4ccccc4F)nn23)cc1	inactive
COc1ccccc1CNC(=O)CN1C(=O)COc2ccc(S(=O)(=O)Nc3ccccc3)cc21	inactive
CCOC(=O)C1CCN(C(=O)c2ccccc2N(C)S(C)(=O)=O)CC1	inactive
CN(CC(=O)Nc1ccc(Cl)cc1)C(=O)c1cc(-c2cccs2)nn1-c1ccccc1	inconclusive: 7.94 µM [inhibitor, partial curve, poor fit]
COc1ccc(C(=O)Nc2ccc3[nH]ccc3c2)cc1OC	inconclusive: 28.2 µM [inhibitor, single point]
Cc1nnc(NC(=O)CSCc2cc(=O)c3cc(Cl)ccc3[nH]2)s1	inactive
Cc1cc(C(=O)COC(=O)c2cnccn2)c(C)n1-c1ccc(Br)cc1	inconclusive: 11.2 µM [inhibitor, partial curve, poor fit]
O=C(NC(=S)Nc1ccccc1N1CCCC1)c1ccccc1[N+](=O)[O-]	inconclusive: 20 µM [inhibitor, single point]
CCOC(=O)/C(=C\c1cccnc1)C(=O)c1cc(C(C)=O)c(Nc2ccccc2)s1	inconclusive: 3.16 µM [inhibitor, full curve, poor fit]
COc1ccccc1CNC(=S)NCCc1ccccc1	inconclusive: 22.4 µM [inhibitor, single point]
COC(=O)c1cc(CSC(=N)N)ccc1OCCC(C)C	inconclusive: 28.2 µM [inhibitor, partial curve, poor fit]
CSc1ccccc1NC(=O)CN(C)C(=O)COc1cccc2cccnc12	inconclusive: 8.91 µM [inhibitor, partial curve, poor fit]
C=CCN1CC(c2nc3ccccc3n2Cc2cccc3ccccc23)CC1=O (stereo not drawn)	inconclusive: 22.4 µM [inhibitor, single point]
Fc1ccc(-n2cc(-c3ccccc3)c3c(NN4CCOCC4)ncnc32)cc1	inconclusive: 28.2 µM [inhibitor, single point]
Cn1c(CSCc2ccc(Cl)cc2)n[nH]c1=S	inconclusive: 28.2 µM [inhibitor, single point]
COc1ccc(Br)cc1CN1CCN(c2ncccn2)CC1	inactive
CC12CC(NC(=O)N1c1cccc(C(=O)NCc3ccc4c(c3)OCO4)c1)c1cc(Cl)ccc1O2 (stereo not drawn)	inconclusive: 10 µM [inhibitor, partial curve]
O=C(NC(=S)NCCC1=CCCCC1)c1cccnc1	inconclusive: 28.2 µM [inhibitor, single point]
Cc1ccccc1/C=N/Nc1ccnc2cc(Cl)ccc12	inconclusive: 28.2 µM [inhibitor, single point]
CC1=C(C(=O)N(C(C)C)C(C)C)CC(CC(=O)NCCCCc2ccccc2)C(=O)N1CCC1=CCCCC1 (stereo not drawn)	inconclusive: 28.2 µM [inhibitor, partial curve, poor fit]
O=c1oc2ccccc2cc1-c1nc2c(s1)CCc1ccccc1-2	inactive

SMILES	Potency
O=S(Cc1ccc(Br)cc1)Cc1nnc(SCc2c(F)cccc2Cl)n1-c1ccccc1 (stereo not drawn)	inconclusive: 12.6 µM [inhibitor, single point]
CCCc1c(NC(=O)Nc2ccc(F)cc2)cnn1-c1ccc(Cl)cc1	inconclusive: 28.2 µM [inhibitor, single point]
CC(=O)N1CCN(c2nc(CC(C)C)c3c(c2C#N)CCC3)CC1	inactive
O=C(/C=C/c1ccc(O)c(O)c1)NC(=O)c1ccccc1O	inconclusive: 22.4 µM [inhibitor, single point]
CCCCCCNC(=O)O[C@H]1CN(C(=O)OC(C)C)N(C(=O)OC(C)C)[C@@H]2CN(S(=O)(=O)c3ccc(C)cc3)C[C@]12O	inconclusive: 28.2 µM [inhibitor, single point]
Cc1cccc(NC(=O)CN2C(=O)S/C(=C\c3ccc(O)c([N+](=O)[O-])c3)C2=O)c1	inconclusive: 14.1 µM [inhibitor, partial curve, poor fit]
c1ccc(Cc2c[nH]c3ccccc23)cc1	inactive
COc1cccc(CN(C(=O)c2oc3cc(C)ccc3c2C)C2CCS(=O)(=O)C2)c1 (stereo not drawn)	inconclusive: 0.891 µM [inhibitor, full curve, poor fit]
Cc1ccc(Cn2c(C(=O)O)c(CNCc3ccc(OC(C)C)cc3)c3ccc(C)cc32)cc1	inconclusive: 12.6 µM [inhibitor, single point]
CCOC(=O)CN1C(=O)C(Sc2n[nH]c(-c3ccccc3)n2)CCc2ccccc21 (stereo not drawn)	inconclusive: 28.2 µM [inhibitor, single point]
COc1cccc(-n2c(=O)c3c(C)c(C)sc3n(CC(=O)NCCc3ccc(OC)c(OC)c3)c2=O)c1	inactive
Cc1cc(OCC(=O)Nc2ccccc2N2CCCC2)ccc1C(C)C	inactive
CC1(C)Cc2c(sc3c2c(N)nc(=S)n3Cc2ccc(Br)cc2)CO1	inconclusive: 10 µM [inhibitor, partial curve]
CCC(CC)c1nnc(NC(=O)c2ccc3ccccc3n2)s1	inconclusive: 28.2 µM [inhibitor, single point]
COc1ccc(NS(=O)(=O)c2cc(NC(=O)c3ccc(Cl)cc3)ccc2N2CCOCC2)cc1	inconclusive: 8.91 µM [inhibitor, partial curve, poor fit]
COC(=O)CSC1=C(C#N)C(c2ccsc2)CC(=O)N1 (stereo not drawn)	inconclusive: 10 µM [inhibitor, partial curve, poor fit]
CCN1C(=O)c2ccccc2S(=O)c2ccc(C(=O)NCc3ccc(OC)cc3)cc21 (stereo not drawn)	inactive
Cc1ccc(C)c2sc(NC(=O)c3ccc(S(=O)(=O)N4CCC(C)CC4)cc3)nc12	inactive
CC(/C=N/NC(=O)c1cc(-c2ccncc2)nc2ccccc12)=C\c1ccco1	inconclusive: 0.501 µM [inhibitor, full curve, poor fit]
CCOc1ccccc1NC(=O)NCc1ccc2c(c1)CCN2C(=O)c1ccccc1	inactive
CCN(CC)S(=O)(=O)c1ccc(N2CCOCC2)c(NC(=O)c2cc([N+](=O)[O-])ccc2Cl)c1	inactive
FC(F)(F)c1cccc(NC(=S)NCc2ccccn2)c1	inconclusive: 28.2 µM [inhibitor, single point]
CCOCCCN(Cc1ccco1)S(=O)(=O)c1cc2c(cc1Cl)NC(=O)CO2	inactive

SMILES	Potency
COc1ccc(CNc2nc3nc(C)cc(C)n3n2)cc1OC	inactive
CC(Oc1ccc(F)cc1)C(=O)Nc1sc2c(c1C(=O)NCc1cccnc1)CCCC2 (stereo not drawn)	inactive
COC(=O)C1C(C(C)C)N(c2ccccc2)OC1(C)O (stereo not drawn)	inconclusive: 2.82 µM [inhibitor, full curve]
CC1CN(C(=O)c2cc3cc([N+](=O)[O-])ccc3oc2=O)CC(C)O1 (stereo not drawn)	inconclusive: 0.501 µM [inhibitor, full curve, poor fit]
CN(CC(=O)Nc1ccc(Cl)c(C(F)(F)F)c1)C(=O)CC1Sc2ccccc2NC1=O (stereo not drawn)	inconclusive: 28.2 µM [inhibitor, single point]
Cc1ccc(C)c(CN2CCC(n3nccc3NC(=O)CCCc3ccccc3)CC2)c1	inconclusive: 5.62 µM [inhibitor, full curve, poor fit]
O=C(NCc1cccc(CNC(=O)C(=O)NCC2CCCO2)c1)C(=O)NCC1CCCO1 (stereo not drawn)	inactive
CC(C)N(C(=O)Cn1cc(SCC(=O)Nc2ccccc2F)c2ccccc21)C(C)C	inactive
COc1cccc(-c2nc(CCl)cs2)c1	inactive
O=[N+]([O-])c1ccc(N2CCOCC2)cc1O	inconclusive: 15.8 µM [inhibitor, partial curve, poor fit]
COc1ccc(Cl)cc1C(=O)Nc1ccccc1N1CCN(C(=O)C(C)C)CC1	inconclusive: 20 µM [inhibitor, single point]
COc1ccccc1N1CCN(Cc2ccc(C(=O)O)cc2)CC1	inactive
Cc1ccc(C(C)C)c(OCCSc2nc(-c3ccccc3F)nc3cc(=O)[nH]n23)c1	inactive
CCOC(=O)C1(Cc2ccccc2)CCN(Cc2nccn2CC)CC1	inconclusive: 28.2 µM [inhibitor, single point]
COc1ccc(-c2nc(SCC(=O)NC3CCCC3)c(-c3ccc(F)cc3)[nH]2)cc1	inactive
COc1ccccc1/C=N/NC(=S)Nc1cccnc1	inconclusive: 2.82 µM [inhibitor, single point]
CCOC(=O)C1=C(c2ccccc2)NC(=S)NC1c1ccc(C)c([N+](=O)[O-])c1 (stereo not drawn)	inconclusive: 11.2 µM [inhibitor, partial curve]
O=C(O)c1ccccc1C(=O)OCCc1cc2ccccc2c(=O)o1	inconclusive: 0.501 µM [inhibitor, full curve, poor fit]
C=CCn1c(C)cc(C(=O)Cn2ncc(Cl)c(Cl)c2=O)c1C	inconclusive: 7.08 µM [inhibitor, partial curve, poor fit]
Cn1c(=O)cc(SCC(=O)N2CCCC2)c2ccccc21	inactive
CC(C)c1ccc(C(N)=S)cc1	inconclusive: 15.8 µM [inhibitor, single point]
CS(=O)(=O)c1ccc(S(=O)CC(=O)OCc2ccccc2)c([N+](=O)[O-])c1 (stereo not drawn)	inconclusive: 11.2 µM [inhibitor, single point]

Source: PubChem BioAssay AID624418 (National Center for Advancing Translational Sciences (NCATS), 2012)
